In PubChem BioAssay AID463173 (ICCB-Longwood Screening Facility, Harvard Medical School, 2010):
Among all 52,000 compounds or so, about 4,300 (8.3%) were called active. No stated cut-off is given here; in the data, active means survival mostly below about 52% (no sharp cut-off); inactive means mostly above about 56%. Some of the results follow.

Tested on: DeltatarO mutant
Experiment: S. aureus survival, RN4220 and DeltatarO strains – OD600, teichoic acid synthesis inhibitors, primary screen (AID 463173)
Conditions: S. aureus RN4220 wild type/DeltatarO growth, OD600, 18 h, stronger effect = lower value, screened at 18.75 µg/mL (by protocol)

SMILES | survival
O=C(CN1C(=O)C2(SCC(=O)N2c2ccccc2)c2ccccc21)NCc1ccccc1Cl (centres undefined) | inactive: 90%
COc1ccc(S(=O)(=O)N2C3CCC2CC(NC(=O)NC2CCCCC2)C3)cc1 (centres undefined) | inactive: 90%
CSc1nc(-c2ccc(F)cc2)nc2c1Cc1c(CO)cnc(C)c1O2 | inactive: 59%
CCCc1nn2c(=O)cc(COC(=O)c3ccc(NC(=O)C(C)Oc4ccccc4)cc3)nc2s1 (centres undefined) | inactive: 74%
c1ccc(C2=NN3COc4ccccc4C3C2)cc1 (centres undefined) | inactive: 87%
CCCCNc1nc(Oc2ccc(=O)n(C)n2)nc(N(C)C)n1 | inactive: 79%
Cc1ccc(C(C(=O)NC2CC2)N(C(=O)Cn2nnc(-c3cccs3)n2)c2cnc3ccccc3c2)o1 (centres undefined) | inactive: 88%
O=C1SCC(c2ccccc2)S1 (centres undefined) | inactive: 78%
O=C(O)c1cc(C2CC2)on1 | inactive: 92%
CCOc1ccc(CCNC(=O)Cn2nnc(-c3ccc(OC)c(OC)c3)n2)cc1OCC | inactive: 65%
CN1CCN(C(CNC(=O)C(=O)Nc2ccc(F)cc2F)c2ccc3c(c2)OCO3)CC1 (centres undefined) | inactive: 93%
CC(C)Oc1ccc(CNS(=O)(=O)c2cnc(N)nc2)cc1 | inactive: 115%
CCOc1cc(CNCCSc2nnnn2-c2ccccc2)cc(Cl)c1OC | inactive: 77%
Cc1c(Cl)cccc1NC(=O)CCn1c(=O)c2cccn2c2ccccc21 | inactive: 49%
Cc1ccc2c(CC(=O)Nc3ccccc3C(F)(F)F)coc2c1C | inactive: 96%
CC(CNC(=O)C1CCN(Cc2cc3ccccc3n2Cc2ccccc2)CC1)c1ccccc1 (centres undefined) | active: 47%
CCOc1ccccc1NC(=O)CSc1nccn1-c1ccc(Cl)cc1 | inactive: 85%
O=C(Nc1ccccc1Cl)c1cnsn1 | inactive: 90%
COc1ccc(C(=O)c2cn(Cc3ccc(C)cc3)c3cc4c(cc3c2=O)OCO4)cc1 | inactive: 107%
COc1ccccc1-c1noc(CSc2nc3ccc(C)cc3[nH]2)n1 | inactive: 102%

SMILES | survival
O=C(CSc1cn(CC(=O)N2CCCCC2)c2ccccc12)Nc1ccccc1F | active: 70%
COc1cc(NC(=O)CCS(=O)(=O)c2nc(-c3cccs3)cc(C(F)(F)F)n2)cc(OC)c1OC | inactive: 84%
CS(=O)(=O)N(CC(=O)NCCSc1ccccc1)c1cc(C(F)(F)F)ccc1Cl | inactive: 56%
Oc1c(Br)cc(Br)cc1-c1nc2ccccc2s1 | inactive: 126%
COc1cccc(C2C(C(=O)Nc3ccccc3)=C(C)Nc3nc(-c4ccccc4)nn32)c1 (centres undefined) | active: 57%
CS(=O)(=O)N(CCc1ccccc1)CC(=O)N1CCOCC1 | inactive: 97%
CCc1ccc(OC(C)C(=O)Nc2c(C(=O)c3ccccc3)oc3ccccc23)cc1 (centres undefined) | inactive: 38%
COc1ccc(Cl)cc1NC(=O)c1cc2c(s1)-c1ccccc1OC2 | inactive: 74%
COCCNC(=O)CCc1nc2cccnc2n1Cc1ccc(OC)cc1 | inactive: 137%
CC(=O)c1ccc(N2CCN(C(=O)c3cc4cc5cc(C)ccc5nc4s3)CC2)cc1 | inactive: 93%
CCN(CC)c1cc(C)c2cc(NC(=O)/C=C/c3ccc(C)cc3)ccc2n1 | inactive: 43%
Cc1ccc(C)c(NC(=O)C2CCCN(S(=O)(=O)c3ccc4[nH]c(=O)ccc4c3)C2)c1 (centres undefined) | inactive: 83%
Cc1ccc(C(=O)c2oc3ccccc3c2NC(=O)c2cc(-c3ccccc3)on2)cc1F | inactive: 86%
CCCN(CCC)C(=O)C1CCCN(S(=O)(=O)c2ccc3c(c2)oc(=O)n3C)C1 (centres undefined) | inactive: 92%
Cc1ccc(-c2nc(CS(=O)CC(=O)N3CCN(c4ccccc4)CC3)c(C)o2)cc1 (centres undefined) | inactive: 62%
COc1ccc(-c2noc(-c3ccc(NC4CCCC4)c([N+](=O)[O-])c3)n2)cc1 | inactive: 108%
O=C(Nc1ccccc1-c1ccccc1)NC1CCN(CC(=O)N2CCOCC2)CC1 | inactive: 73%
CC1CCc2c(sc(NC(=O)COc3ccccc3)c2C(=O)Nc2ccccc2Cl)C1 (centres undefined) | inactive: 190%
CC(NC(=O)Cc1ccccc1)c1ccccc1 (centres undefined) | inactive: 82%
Cc1ccc(CSCC(=O)N2CCN(c3cc(Cl)ccc3C)CC2)cc1 | inactive: 75%

SMILES | survival
Cc1ccc(-n2nc(C(=O)NCCN(C)C)c(=O)n(C)c2=O)cc1 | inactive: 87%
O=C(Nc1ccc(SC(F)F)cc1)c1cc(-c2ccc3c(c2)OCCO3)on1 | inactive: 49%
COCCCNc1c2c(nc3ccccc13)CCC2 | inactive: 125%
Cc1noc(Cn2c(=O)c3cc4c(cc3n(CC(=O)Nc3cccc(Cl)c3)c2=O)OCO4)n1 | inactive: 122%
CCOc1ccc(CNC(=O)c2c(C)nn(-c3ccc(F)cc3)c2-n2cccc2)cc1 | inactive: 120%
CC(=O)Nc1nonc1-c1nnc(SCC(=O)Nc2ccc(C)cc2C)n1C | inactive: 50%
COc1cccc(CNC(=O)c2cc(=O)[nH]c3ccc(S(=O)(=O)N4CCCCC4)cc23)c1 | inactive: 58%
Cc1ccc2nc(C(=O)O)c(C(=O)O)nc2c1 | inactive: 77%
COc1ccccc1CNC(=O)c1ccc2c(c1)sc1nc(-c3ccc(F)cc3)cn12 | inactive: 63%
CC(C)C(=O)OC1=CN(Cc2ccccc2)S(=O)(=O)c2ccccc21 | inactive: 73%
Cc1cccc(C)c1Nc1c(-c2ccc(Cl)s2)nc2ncccn12 | inactive: 103%
Cc1ccc(Cl)cc1NC(=O)CN(C)S(=O)(=O)c1ccc2c(c1)n(C)c(=O)c(=O)n2C | inactive: 87%
COc1ccc(C2C(C(N)=O)=C(C)Nc3nc(-c4ccccc4Cl)nn32)cc1 (centres undefined) | inactive: 88%
Cc1[nH]c2ccccc2c1C(=O)C(=O)NC1CC(=O)N(c2cccc(F)c2)C1 (centres undefined) | inactive: 83%
Cc1ccc2oc(C(=O)N(Cc3ccccc3F)C3CCS(=O)(=O)C3)c(C)c2c1 (centres undefined) | inactive: 68%
COc1cccc(NC(=O)CC2C(=O)OCCN2Cc2ccccc2)c1 (centres undefined) | inactive: 199%
Cc1ccc(S(=O)(=O)N2CCN(C(=O)CN3CCOCC3)C2C(C)C)cc1 (centres undefined) | inactive: 87%
O=C(CSc1nc2c(cnn2-c2ccc(F)cc2)c(=O)[nH]1)Nc1ccc(Br)cc1 | inactive: 60%
Cn1c(=O)[nH]c(=O)c2c1nc1n(CCO)c(-c3ccccc3)cn21 | inactive: 82%
